# Test results taken from PubChem BioAssay AID1466 (National Center for Advancing Translational Sciences (NCATS), 2008).
# The campaign covered roughly 200,000 compounds. About 10 (0.005%) were called active. This list was built around the results that the source calls inconclusive (neither active nor inactive); the mix of calls is not that of the screen. Calls follow the shape of the dose curve; as a rule, active = well fitted inhibition curve with a large enough effect; inconclusive = small, poorly fitted or top-dose-only effect, or effect the other way, or another doubt; inactive = no such curve, though single readings can be large or run the other way. No potency is given beside an inconclusive call; the fits are too rough.
# Target: Lysosomal alpha-glucosidase (Homo sapiens) (UniProt P10253)
# Assay: qHTS Assay for Inhibitors of Human alpha-Glucosidase as a Potential Chaperone Treatment of Pompe Disease;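 as to activity change, negative = inhibition: plate controls were uninhibited enzyme wells for no effect and no-enzyme background for full effect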
# Settings: purified human GAA, 4-MU-alpha-glucoside fluorescence; activity change, negative = inhibition: at 76.9 µM (top of the series) unless noted
# In short: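 qHTS format, compound range up to 77 uM. Human lysosomal enzyme at 4 nM, 400 uM 4-MU glucoside substrate, pH 5.0, 20 min room temperature; fluorescence after alkaline stop gives activity normalized to controls.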
# Potency is read from the fitted curve at half-maximal effect; tags tell the direction and shape of the fitted curve.
Structure (SMILES),Potency,"activity change, negative = inhibition"
COC(=O)c1ccc2c(=O)n(Cc3ccc(C(=O)NCCCN4CCC(C)CC4)cc3)c(=S)[nH]c2c1,"inconclusive [inhibitor, full curve]",–
Cc1c2c(n3c(nc4ccccc43)c1C#N)N(CCCN(C)C)CC2,"inconclusive [activator, partial curve]",–
CC(C)(C)NC(=O)Cn1c(SCC(=O)NC2CCCCC2)nc2ccccc21,"inconclusive [inhibitor, partial curve]",–
CCOC(=O)/C=c1\s/c(=C\c2c(OCC)ccc3ccccc23)c(=O)n1CC(=O)NCC1CCCO1 (stereo not given),"inconclusive [inhibitor, partial curve, poor fit]",–
Cn1cccc1CC(=O)N/N=C/c1cccc([N+](=O)[O-])c1,"inconclusive [inhibitor, single point]",–
COc1ccc(C(C)=O)cc1COc1ccc(F)cc1,"inconclusive [inhibitor, partial curve]",–
O=C(Nc1ccccc1N1CCCCC1)c1ccccc1F,–,inconclusive: -18% [inhibitor]
COc1cccc(CNc2ccc3c(c2)CCC3)c1,"inconclusive [inhibitor, full curve, poor fit]",–
O=[N+]([O-])c1cc(S(=O)(=O)N2CCCCCC2)ccc1F,"inconclusive [inhibitor, partial curve]",–
Cc1cc(C)cc(NC(=S)NC2CC3CCCC(C2)N3C2CCCC2)c1 (stereo not given),"inconclusive [inhibitor, single point]",–
O=C(Cc1ccc(Br)cc1)N1CCN(c2ccccc2O)CC1,–,inactive: -3.85%
CN(C(=O)Nc1ccc(Cl)c(Cl)c1)c1ccccc1C(=O)O,"inconclusive [activator, single point]",–
O=C(NCCN1CCN(c2ccccc2)CC1)C1CCCN(S(=O)(=O)c2cnc[nH]2)C1 (stereo not given),"inconclusive [inhibitor, single point]",–
CCN1CCN(Cc2nc3c(c(=O)n(C)c(=O)n3C)n2Cc2cccc3ccccc23)CC1,"inconclusive [inhibitor, single point]",–
C=CCn1c(NC)cc(=O)n(C)c1=O,"inconclusive [inhibitor, single point]",–
Oc1ccc(N=Cc2ccc(-c3cccs3)s2)cc1,"inconclusive [activator, partial curve]",–
CC(C)(C)NC(=O)NC(=O)CN1CCN(C(c2ccccc2)c2ccccc2)CC1,"inconclusive [inhibitor, partial curve]",–
Cc1cc2n(n1)C(c1ccc(N(C)C)cc1)Nc1ccccc1-2 (stereo not given),"inconclusive [activator, single point]",–
CC(C)C1CC(CCN)(Cc2ccccc2)CCO1 (stereo not given),"inconclusive [inhibitor, full curve, poor fit]",–
CCOCCCNC(=O)/C(C#N)=C/c1ccc(C(=O)OC)cc1,–,inconclusive: -19.5% [inhibitor]
COC(=O)c1ccc2c(=O)n(CCCCCC(=O)NCc3ccc4c(c3)OCO4)c(=O)[nH]c2c1,–,inconclusive: 16.7% [activator]
O=C(Nc1ccc(F)cc1)c1cccc(N2C(=O)C3C4CCC(C4)C3C2=O)c1 (stereo not given),"inconclusive [inhibitor, full curve, poor fit]",–

Structure (SMILES),Potency,"activity change, negative = inhibition"
CC(C)Sc1nc2c(c(=O)[nH]c(=O)n2C)n1C,"inconclusive [inhibitor, single point]",–
CCCCn1nc2cc(C(=O)NCc3cc(C(F)(F)F)cc(C(F)(F)F)c3)ccc2c1OC,"inconclusive [inhibitor, partial curve]",–
O=C(NCc1ccco1)c1cccn2c(=O)c3cc4ccccc4cc3nc12,–,inactive: -2.47%
COc1ccc(OC)c(C2CC(=O)Nc3cc(OC)c(OC)c(OC)c32)c1 (stereo not given),"inconclusive [inhibitor, single point]",–
O=c1c(/C=C(\O)c2ccccc2)nc2ccccc2n1-c1ccccc1,–,inconclusive: -16.8% [inhibitor]
CCCCCCCCCCC(=O)Nc1cccnc1,–,inconclusive: 15% [activator]
COc1cc(/C=N/N=C(\N)c2nonc2N)ccc1O,–,inactive: -12.5%
C=CC[n+]1c(-c2ccc(OC)c(OC)c2)csc1NNC(=O)Nc1ccccc1,–,inactive: -4.07%
CCN(CC)c1ccc(NC(=O)c2ccc(=O)[nH]c2)cc1S(=O)(=O)Nc1ccccc1OC,"inconclusive [inhibitor, single point]",–
Cn1c(-n2c(CCN3C(=O)c4ccccc4C3=O)nc3ccccc3c2=O)nc2ccccc21,"inconclusive [inhibitor, single point]",–
Cc1cc(C)c2c(n1)nn1c(NCCCn3ccnc3)cc(C)nc21,"inconclusive [activator, partial curve]",–
COc1ccccc1N1CCN(C(=O)Nc2cccc(Cl)c2)CC1,"inconclusive [inhibitor, single point]",–
O=C(CCc1nc2ccccc2c(=O)[nH]1)OCC(=O)N1CCN(S(=O)(=O)c2ccccc2)CC1,"inconclusive [inhibitor, partial curve, poor fit]",–
CCOC(=O)c1[nH]c2ccccc2c1NC(=S)Nc1ccccc1C,–,inactive: -8.38%
CCOc1ccc(CCNC(=O)C2CCN(c3nnc(-n4cccc4)s3)CC2)cc1OCC,"inconclusive [inhibitor, full curve, poor fit]",–
CC1(C)Oc2ccc(C(=O)N3CCCC3)cc2N(CC(=O)NCc2ccccc2)C1=O,"inconclusive [inhibitor, single point]",–
CC(=O)N(c1ccc(Cl)cc1)c1cn(C(C)=O)c2ccccc12,–,inactive: 1.56%
Cc1ccc(Cn2c(N)c(S(=O)(=O)c3cccs3)c3nc4ccccc4nc32)cc1,"inconclusive [activator, partial curve]",–
COc1ccccc1NS(=O)(=O)c1ccc(S(=O)(=O)N2CCOCC2)cc1,"inconclusive [inhibitor, partial curve]",–
CN(CC(=O)NCc1ccccn1)S(=O)(=O)c1ccccc1,"inconclusive [activator, partial curve, poor fit]",–
CCO/C=C1/C(=O)N(C)C(=O)c2cc(OC)ccc21,–,inactive: -1.19%
CCOC(=O)c1[nH]ncc1CN1CCCC(C(=O)c2ccc(C(C)(C)C)cc2)C1 (stereo not given),–,inconclusive: 17.3% [activator]

Structure (SMILES),Potency,"activity change, negative = inhibition"
CCOc1ccc(C2C(C(=O)c3cccs3)=C(O)C(=O)N2Cc2cccnc2)cc1OC (stereo not given),"inconclusive [inhibitor, partial curve]",–
CC(CN1CCCCC1)C(=O)NNC(=O)C12CC3CC(CC(C3)C1)C2 (stereo not given),–,inconclusive: -15.3% [inhibitor]
Cc1nn(C)c(C)c1C1Nc2ccccc2C(=O)N1O (stereo not given),"inconclusive [inhibitor, single point]",–
CN(C(=O)C1CCCO1)c1nnc(-c2ccncc2)s1 (stereo not given),"inconclusive [inhibitor, single point]",–
COC(=O)Cc1nc(Nc2ccccc2)sc1C,–,inactive: 2.59% [at 15.4 µM]
CCOC(=O)c1ccc(N2C(=O)c3n[nH]c(C)c3C2c2ccc(OC)cc2OC)cc1 (stereo not given),"inconclusive [inhibitor, single point]",–
Cc1cc(=O)oc2cc(NC(=O)C3CCCC3)ccc12,"inconclusive [activator, single point]",–
CCOc1ccccc1C1C(C(=O)OC)=CN(C)C=C1C(=O)OC,"inconclusive [activator, partial curve]",–
COc1ccc(-c2noc(CCC(=O)NCCN3CCN(c4ccccc4F)CC3)n2)cc1,"inconclusive [inhibitor, partial curve, poor fit]",–
Oc1ccc(-c2nc(-c3ccc(O)c(O)c3)cs2)cc1,–,inactive: -9.2%
NNc1nc(-c2ccccc2)cc(-c2ccccc2O)n1,–,inactive: 1.78%
CCCN(CCC)S(=O)(=O)c1cccc(C(=O)Nc2ccc3c(c2)OCO3)c1,"inconclusive [inhibitor, single point]",–
COC(=O)c1cc(Br)c(=O)n(-c2ccccn2)c1,"inconclusive [inhibitor, partial curve, poor fit]",–
Cc1cc[n+]2cc(-c3cccc([N+](=O)[O-])c3)c(-c3cccc([N+](=O)[O-])c3)cc2c1,"inconclusive [inhibitor, partial curve]",–
O=C(NC1CCCCC1)C(c1ccncc1)N(C(=O)Cc1cccs1)c1ccccc1 (stereo not given),–,inconclusive: 22.8% [activator]
N#CC1=C(N)N2C(=C(C#N)C13CCN(Cc1ccccc1)CC3)Nc1ccccc12,–,inconclusive: 17.2% [activator]
O=C(c1ccccc1[N+](=O)[O-])n1cnc2ccccc21,–,inconclusive: 11.5% [activator]
O=C(c1cc2cc([N+](=O)[O-])ccc2oc1=O)N1CCOCC1,–,inconclusive: 15.6% [activator]
CN1CCN(c2ccccc2NC(=O)C(Cc2ccccc2)n2cccc2)CC1 (stereo not given),"inconclusive [inhibitor, partial curve]",–
CC1=CCC2C(=O)N(c3ccc(C)c(Br)c3)C(=O)C2C1 (stereo not given),"inconclusive [inhibitor, single point]",–
Cc1ccc(-n2nnnc2SC(C)C(=O)NCC(=O)Nc2ccc(F)c(F)c2F)c(C)c1 (stereo not given),"inconclusive [inhibitor, single point]",–
